Among all 43,000 compounds or so, about 200 (0.47%) were called active. Roughly 12% stayed inconclusive and do not appear here. The call rests on the fitted dose curve; in most records, active means well fitted cell-killing curve with a large enough effect; inconclusive means small, poorly fitted or top-dose-only effect, or effect the other way; inactive means flat fitted curve, though single readings scatter. The list shows a part of the results.
Test: Cell viability qHTS assay in S16 Pmp22-F2sN cells; further: nearly all actives have a fitted effect of over 65% in size
Conditions: S16 Pmp22-F2sN Schwann cells (luciferase reporters placed in the Pmp22 gene) viability, CellTiter-Glo, 24 h; series mostly up to 57.5 µM; activity change, negative = cytotoxicity: at the top concentration
Summary of the method: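 Rat S16 Schwann reporter line, 24 h treatment with library compounds delivered at 23 nL per well. Cell viability by CellTiter-Glo luminescence.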
On the % scale 0 is the no-effect control and ±100 the full control effect.

| Compound | activity change, negative = cytotoxicity |
| --- | --- |
| O=C(CSc1nnc(CNC(=O)c2ccccc2)n1-c1cccc(Cl)c1)Nc1ccccc1F | inactive: -6.81% |
| CCn1c(SCc2ccccc2Cl)nc(=O)c2c(C(=O)OC)cc(C3CC3)nc21 | inactive: -0.396% |
| CNC(=O)COc1ccc(NC(=O)c2ccc(-c3nn(C)c(=O)c4ccccc34)cc2)cc1 | inactive: 26.5% |
| Cc1nn(S(=O)(=O)c2ccc(Cl)cc2)c(C)c1S(=O)(=O)N1CCCCCC1 | inactive: -2.68% |
| CC(=O)Nc1nonc1-c1nnc(SCc2ccc(Cl)cc2)n1C | inactive: -0.164% |
| CCOC(=O)c1c(NC(=O)c2cc(=O)c3c(C)cc(C)cc3o2)sc(C(C)=O)c1C | inactive: -0.561% |
| Cc1cc(C)c2c(-n3cccc3)c(C(=O)NCCCN3CCCCC3C)sc2n1 (centres undefined) | inactive: -0.301% |
| CCCOc1ccc(C(=O)Nc2cc(-c3nc4cc(C)cc(C)c4o3)ccc2C)cc1 | inactive: 4.93% |
| Cc1ccc(-c2noc(-c3ccc(N4CCCCC4)c([N+](=O)[O-])c3)n2)cc1 | inactive: 8.27% |
| CC(C)NC(=O)C1CCN(C(=O)N2CCOc3ccc(Cl)cc32)CC1 | inactive: 4.83% |
| Clc1ccc(CCNC(c2nnc(-c3ccccc3)o2)c2ccccc2Cl)cc1 (centres undefined) | inactive: -21.6% |
| COc1cc(NC(=O)CCn2cnc3ccccc3c2=O)cc(OC)c1 | inactive: -11.3% |
| CCOC(=O)c1ccccc1NC(=O)n1ncc2cc(Cl)ccc21 | inactive: -2.42% |
| CCc1cccc(C)c1NC(=O)c1cc(S(=O)(=O)N2CCOCC2)cn1C | inactive: -1.68% |
| CCCCSCCCNC(=O)c1cn(CC)c2ccc(S(=O)(=O)N3CCCCCC3)cc2c1=O | inactive: -6.17% |
| COc1ccc(OCCn2c(C)nc3cc(C)c(C)cc32)cc1 | inactive: -15.7% |
| CCOc1cccc(C(=O)Nc2ccc3oc(-c4cccnc4)nc3c2)c1 | inactive: -3.7% |
| COc1ccc(-c2c(C)nn3c(N4CCN(c5ccccc5)CC4)cc(C)nc23)cc1OC | inactive: -12.7% |
| COc1ccc(NC(=O)CC2C(=O)N(c3ccc(F)cc3)C(=O)N2Cc2ccc3c(c2)OCO3)cc1 (centres undefined) | inactive: 6.1% |
| CCCn1c(=N)c(C(=O)NC2CCCC2)cc2c(=O)n3cccc(C)c3nc21 | inactive: 3.2% |
| COc1ccc(/C=C(/C#N)c2nc(-c3ccc(-c4ccccc4)cc3)cs2)cc1OC | inactive: 0.795% |
| CCOC(=O)c1cccc(NC(=O)Cn2c(=O)nc(-c3ccccc3F)c3cc(Cl)ccc32)c1 | inactive: 6.24% |
| CCn1c(=O)c2cc(C(=O)N(CC(C)C)CC(C)C)sc2c2ccccc21 | inactive: -9.61% |
| CCOc1ccc(CCNC(=O)c2csc3c2CCCCC3)cc1 | inactive: -18.9% |
| COc1cccc(CNC(=O)CCCN2C(=O)CCn3nc(-c4cccn4C)cc32)c1 | inactive: -10% |

| Compound | activity change, negative = cytotoxicity |
| --- | --- |
| CCN(C(=O)CSc1nc2ccccc2n1CC(=O)NCc1ccc(OC)cc1)c1ccccc1 | inactive: 9.83% |
| CCOC(=O)c1cc(-c2ccccc2)n(CCC(=O)NC2CCCCC2)c1C | inactive: -0.505% |
| Cc1ccc2nc(CSc3nnc(NC(=O)c4cccc(Br)c4)s3)cc(=O)n2c1 | inactive: 15.8% |
| CCOC(=O)c1ccc(NC(=O)CN2c3ccccc3S(=O)(=O)c3ccccc32)cc1 | inactive: 3.33% |
| Cc1ccc(CNc2ncnc3c2nc2n3CCCC2)cc1 | inactive: -2.78% |
| Cc1cc(C)cc(Nc2cc(C)nc3nncn23)c1 | inactive: 2.81% |
| Cc1cccc(-c2nc3scc(CCNC(=O)c4ccc(Br)o4)n3n2)c1 | inactive: 0.621% |
| CCC(CC)C(=O)Nc1ccc(-c2cn3cccnc3n2)cc1 | inactive: 28% |
| CNC(=O)C1CCC(Cn2c(=O)c3sccc3n(CC(=O)NCc3cccc(OC)c3)c2=O)CC1 (centres undefined) | inactive: -1.66% |
| Cc1ccc(Nc2nnc(-c3cc4c(ccc5ccccc54)oc3=O)s2)cc1 | inactive: 4.7% |
| COc1cccc(C(=O)N2CCc3c([nH]c4ccccc34)C2c2ccc(SC)cc2)c1 (centres undefined) | inactive: 12.5% |
| COc1ccc(CNC(=O)CN2C(=O)COc3ccc(S(=O)(=O)NC4CCCC4)cc32)cc1 | inactive: 1.07% |
| CCOC(=O)N1CCN(c2ncc3c(n2)CC(c2ccccc2O)CC3=O)CC1 (centres undefined) | inactive: -4.8% |
| COc1ccc(/C=C\c2onc(C)c2S(=O)(=O)N2CCC(C(=O)Nc3cccc(Cl)c3)CC2)cc1 | inactive: -15.4% |
| COc1ccc(CCNC(=O)CCc2c(C)nc3cc(-c4ccccc4OC)nn3c2C)c(OC)c1 | inactive: -12.5% |
| CCc1cccc(C)c1NC(=O)CN(C)S(=O)(=O)c1cccc2nsnc12 | inactive: -22.3% |
| Cc1ccc(N2CCN(c3nc4c(S(=O)(=O)c5ccc(C)c(C)c5)nnn4c4ccccc34)CC2)c(C)c1 | inactive: -0.924% |
| Cc1c(C(=O)N(Cc2ccc(N(C)C)cc2)CC2CCCO2)oc2ccc(Br)cc12 (centres undefined) | inactive: 3.46% |
| CCOc1ccc2oc(=O)cc(CN3CCN(c4ccc(Cl)cc4)CC3)c2c1 | inactive: -19.7% |
| CCc1c(C)c2ccc(O)c(CN3CCN(c4ccccc4)CC3)c2oc1=O | inactive: 9.21% |
| CCOC(=O)c1c(NC(=O)COc2ccc(Cl)cc2C)sc(C(C)=O)c1C | inactive: 12.4% |
| Cc1ccc(S(=O)(=O)c2cn(C)c3cc(N4CCCCC4)c(F)cc3c2=O)cc1 | inactive: -18.6% |
| COc1ccc(C)cc1NC(=O)N1CCC(CN2CCC(C)CC2)CC1 | inactive: -0.306% |
| CCOC(=O)N1CCN(C(=O)CN(c2cc(C)ccc2OC)S(=O)(=O)c2ccc(C)cc2)CC1 | inactive: -1.26% |

— PubChem BioAssay AID1508642 (National Center for Advancing Translational Sciences (NCATS), 2021)
